Substitutions are numbered along the chain they refer to; changes in the protein carry UniProt numbers. Some of the results follow.
T1: RBFOX1 RRM RbFoxmut (Fox-RRM*) (Homo sapiens, UniProt Q9NWB1 109-208, R118D;E147R;N151S;E152T)
T1 sequence: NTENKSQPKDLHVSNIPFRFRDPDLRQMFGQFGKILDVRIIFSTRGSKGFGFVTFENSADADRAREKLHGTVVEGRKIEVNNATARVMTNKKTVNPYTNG

B1: AAGCAGA (DNA:RNA)
RNA: GGGAGACCGGAAUUCAGAUUGUCCAAGCAGAUUAAAUCCCGUCGUAGCCACCA
DNA 1: CAATCTGAATTCCGGTCTCCC
DNA 2: TGGTGGCTACGACGGGATT
B2: GAUAUGA (DNA:RNA)
RNA: B1 RNA with A25G, G27U, C28A, A29U
DNA 1: CAATCTGAATTCCGGTCTCCC
DNA 2: TGGTGGCTACGACGGGATT
B3: UAAAACC (DNA:RNA)
RNA: B1 RNA with A25U, G27A, C28A, G30C, A31C
DNA 1: CAATCTGAATTCCGGTCTCCC
DNA 2: TGGTGGCTACGACGGGATT
B4: UCGUACA (DNA:RNA)
RNA: B1 RNA with A25U, A26C, C28U, G30C
DNA 1: CAATCTGAATTCCGGTCTCCC
DNA 2: TGGTGGCTACGACGGGATT
B5: CAUGUUC (DNA:RNA)
RNA: B1 RNA with A25C, G27U, C28G, A29U, G30U, A31C
DNA 1: CAATCTGAATTCCGGTCTCCC
DNA 2: TGGTGGCTACGACGGGATT
B6: UGCCCCA (DNA:RNA)
RNA: B1 RNA with A25U, A26G, G27C, A29C, G30C
DNA 1: CAATCTGAATTCCGGTCTCCC
DNA 2: TGGTGGCTACGACGGGATT
B7: UAACUCG (DNA:RNA)
RNA: B1 RNA with A25U, G27A, A29U, G30C, A31G
DNA 1: CAATCTGAATTCCGGTCTCCC
DNA 2: TGGTGGCTACGACGGGATT
B8: CCUAGUC (DNA:RNA)
RNA: GGGAGACCGGAAUUCAGAUUGUCCCCUAGUCUUAAAUCCCGUCGUAGCCACCA
DNA 1: CAATCTGAATTCCGGTCTCCC
DNA 2: TGGTGGCTACGACGGGATT
B9: CGUGAUA (DNA:RNA)
RNA: B8 RNA with C26G, A28G, G29A, C31A
DNA 1: CAATCTGAATTCCGGTCTCCC
DNA 2: TGGTGGCTACGACGGGATT
B10: UAUUAGU (DNA:RNA)
RNA: B1 RNA with A25U, G27U, C28U, A31U
DNA 1: CAATCTGAATTCCGGTCTCCC
DNA 2: TGGTGGCTACGACGGGATT
B11: GGACCUA (DNA:RNA)
RNA: B1 RNA with A25G, A26G, G27A, A29C, G30U
DNA 1: CAATCTGAATTCCGGTCTCCC
DNA 2: TGGTGGCTACGACGGGATT
B12: CGUCGCA (DNA:RNA)
RNA: B8 RNA with C26G, A28C, U30C, C31A
DNA 1: CAATCTGAATTCCGGTCTCCC
DNA 2: TGGTGGCTACGACGGGATT
B13: GAUCCGU (DNA:RNA)
RNA: B1 RNA with A25G, G27U, A29C, A31U
DNA 1: CAATCTGAATTCCGGTCTCCC
DNA 2: TGGTGGCTACGACGGGATT
B14: CCGAAAC (DNA:RNA)
RNA: B8 RNA with U27G, G29A, U30A
DNA 1: CAATCTGAATTCCGGTCTCCC
DNA 2: TGGTGGCTACGACGGGATT
B15: UGUUAUA (DNA:RNA)
RNA: B1 RNA with A25U, A26G, G27U, C28U, G30U
DNA 1: CAATCTGAATTCCGGTCTCCC
DNA 2: TGGTGGCTACGACGGGATT
B16: CUUGAAC (DNA:RNA)
RNA: B8 RNA with C26U, A28G, G29A, U30A
DNA 1: CAATCTGAATTCCGGTCTCCC
DNA 2: TGGTGGCTACGACGGGATT
B17: UAAGUGC (DNA:RNA)
RNA: B1 RNA with A25U, G27A, C28G, A29U, A31C
DNA 1: CAATCTGAATTCCGGTCTCCC
DNA 2: TGGTGGCTACGACGGGATT
B18: ACGCUAU (DNA:RNA)
RNA: B1 RNA with A26C, A29U, G30A, A31U
DNA 1: CAATCTGAATTCCGGTCTCCC
DNA 2: TGGTGGCTACGACGGGATT
B19: GGGGAUU (DNA:RNA)
RNA: B1 RNA with A25G, A26G, C28G, G30U, A31U
DNA 1: CAATCTGAATTCCGGTCTCCC
DNA 2: TGGTGGCTACGACGGGATT
B20: GCCGUUU (DNA:RNA)
RNA: B8 RNA with C25G, U27C, A28G, G29U, C31U
DNA 1: CAATCTGAATTCCGGTCTCCC
DNA 2: TGGTGGCTACGACGGGATT

Molecular target: T1, RBFOX1 RRM RbFoxmut (Fox-RRM*)
Test: EMSA; HiTS-Eq, 1 nM pool, 10 min; buffer printed only for the single-RNA assays: 10 mM Tris pH 7.5, 150 mM NaCl, 3.4 mM EDTA, 0.001% NP-40, 30 C
Details: tags: His6 N-terminal (pET28a); label: 5' 32P
Procedure, shortened: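 These values rest on relative association constants, computed from read-count changes of each RNA species versus the control reaction and normalised to the cognate motif. Reads came from free RNA recovered by 8% native PAGE after purified RbFox RRM (wild type or mutant) at increasing concentrations was equilibrated for 10 min in 50 µL with 1 nM of a 5′-radiolabelled pool with 7 randomized nucleotides and DNA-annealed flanks.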

| Binder | binding signal |
| --- | --- |
| B1 | 0.105 KA relative to UGCAUGU |
| B2 | 0.132 KA relative to UGCAUGU |
| B3 | 0.053 KA relative to UGCAUGU |
| B4 | 0.0981 KA relative to UGCAUGU |
| B5 | 0.119 KA relative to UGCAUGU |
| B6 | 0.0711 KA relative to UGCAUGU |
| B7 | 0.0683 KA relative to UGCAUGU |
| B8 | 0.0963 KA relative to UGCAUGU |
| B9 | 0.193 KA relative to UGCAUGU |
| B10 | 0.112 KA relative to UGCAUGU |
| B11 | 0.0777 KA relative to UGCAUGU |
| B12 | 0.146 KA relative to UGCAUGU |
| B13 | 0.0824 KA relative to UGCAUGU |
| B14 | 0.0811 KA relative to UGCAUGU |
| B15 | 0.136 KA relative to UGCAUGU |
| B16 | 0.0955 KA relative to UGCAUGU |
| B17 | 0.0696 KA relative to UGCAUGU |
| B18 | 0.0894 KA relative to UGCAUGU |
| B19 | 0.0794 KA relative to UGCAUGU |
| B20 | 0.0818 KA relative to UGCAUGU |
